Data published in PubChem BioAssay AID588855 (National Center for Advancing Translational Sciences (NCATS), 2011).
Hit rate of the full screen: of about 410,000 compounds, about 5,000 (1.2%) were called active. Inconclusive means that the source gave no clear call. Such entries were picked first, then a sample of the others. The call rests on the fitted dose curve; in most records, active means well fitted inhibition curve with a large enough effect; inconclusive means small, poorly fitted or top-dose-only effect; inactive means no such curve, though single readings can be large or run the other way. Potencies beside an inconclusive call are fits to weak or partial responses and may not hold up.

assay: qHTS for Inhibitors of TGF-b; details: HepG2 CAGA-GFP TGF-b/SMAD3 reporter, GFP fluorescence, 18 h, TGF-beta stimulated, 500 pg/mL final; series mostly up to 46.1 µM; further: nearly all actives have a fitted effect of over 65% in size
How it was run: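 HEPG2 CAGA-GFP reporter cells (1000/well, DMEM with 1% FBS) received compounds, then recombinant TGF-beta at 500 pg/mL final for 18 hours at 37 degrees C. Per-cell GFP summed per well was normalised to unstimulated and stimulated DMSO controls before curve fitting.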
Potency means the concentration at half of the fitted maximal effect; tags describe the fitted curve by direction and shape.

Structure (SMILES) | Potency
CCn1c(SCC(=O)Nc2ccccc2N2CCCCC2)nc2c1c(=O)n(C)c(=O)n2C | inactive
CCCCNC(=O)C(=O)NCCCn1ccnc1 | inconclusive: 6.31 µM [inhibitor, single point]
COc1ccc2c(c1)c(C(=O)N/N=C/c1cccc(Br)c1)c(C)n2C | inconclusive: 35.5 µM [inhibitor, single point]
COc1ccc(C(=O)CSc2cc(C)nc(SCC(=O)c3ccc(C)cc3)n2)cc1 | inconclusive: 1 µM [inhibitor, full curve]
Cc1ccc2c(=O)cc(C(=O)N(Cc3ccc(C(C)(C)C)cc3)C3CCS(=O)(=O)C3)oc2c1 (centres undefined) | inconclusive: 28.2 µM [inhibitor, single point]
CCc1ccc(NC(=O)Cn2c(SCc3ccc(C)cc3)nc3ccncc32)cc1 | inconclusive: 8.91 µM [inhibitor, partial curve]
O=C(Cc1ccc(Cl)cc1)Nc1ccc(SC(F)F)cc1 | inconclusive: 20 µM [inhibitor, single point]
C=CCN(CC=C)Cc1cc(=O)oc2ccc3ccccc3c12 | inconclusive: 35.5 µM [inhibitor, single point]
Fc1cccc(CCN2CCNC[C@H]2Cc2cccc3ccccc23)c1 | active: 15.8 µM
Cc1ccnc(NC(=O)C2CCN(S(=O)(=O)c3ccc4ccccc4c3)CC2)c1 | inconclusive: 35.5 µM [inhibitor, single point]
Cc1ccc(-n2ncc3c(SCc4cccnc4)ncnc32)c(C)c1 | inconclusive: 3.16 µM [inhibitor, full curve, poor fit]
CNC(=O)NC(=O)C(c1ccccc1)N(C)CC1COc2ccccc2O1 (centres undefined) | inactive
CCc1cccc(NC(=O)CCCn2nc(CC)n3c(cc4occc43)c2=O)c1 | inconclusive: 2.24 µM [inhibitor, full curve, poor fit]
O=C(Nc1cccc(S(=O)(=O)C(F)F)c1)c1ccc(Cl)c(S(=O)(=O)N2CCOCC2)c1 | inconclusive: 35.5 µM [inhibitor, single point]
Cc1ccc2c(c1)c1c(c(=O)n(-c3ccccc3)c(=O)n1Cc1ccccc1C)n2C | inactive
COc1ccccc1/C=N/NC(=O)CC(=O)NC1CCCCC1 | inactive
CC(C)C(C(=O)Nc1ccncc1)c1ccc(Cl)cc1 (centres undefined) | inconclusive: 11.2 µM [inhibitor, partial curve, poor fit]
COc1ccc(NC(=O)Nc2nnc(N3CCCC3)s2)cc1 | inconclusive: 3.55 µM [inhibitor, single point]
Cc1ncsc1CCC(=O)N1CCCC(Nc2ccc(C(C)C)cc2)C1 (centres undefined) | inactive
